# Source: the supplement of paper PMC8728848
# This is one part of the list.
# Key:
# Assay in all cases: glycan array binding signal (z-score within array); higher = stronger binding
# Conditions in all cases: glycan notation: IUPAC condensed, linker removed
# [1] = target: Gal(b1-4)GlcNAc(b1-3)Gal(b1-4)GlcNAc(b1-2)Man(a1-3)[Gal(b1-4)GlcNAc(b1-3)Gal(b1-4)GlcNAc(b1-2)Man(a1-6)]Man(b1-4)GlcNAc(b1-4)GlcNAc
# Procedure, shortened: (§1)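 The binding signal is a Z-score computed within each array. Data were drawn from 3228 arrays in the Consortium for Functional Glycomics database, restricted to those with a known protein sequence. Scores were averaged over arrays of the same protein sequence at different concentrations or buffers, and over linkers, and negative values can be taken as non-binding.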
# [2] = target: Gal(b1-4)GlcNAc(b1-3)Gal(b1-4)GlcNAc(b1-2)Man(a1-3)[Gal(b1-4)GlcNAc(b1-3)Gal(b1-4)GlcNAc(b1-2)Man(a1-6)]Man(b1-4)GlcNAc(b1-4)[Fuc(a1-6)]GlcNAc
# Procedure, shortened: as §1
# [3] = target: Gal(b1-4)GlcNAc(b1-3)Gal(b1-4)GlcNAc(b1-2)[Gal(b1-4)GlcNAc(b1-3)Gal(b1-4)GlcNAc(b1-6)]Man(a1-6)[Gal(b1-4)GlcNAc(b1-3)Gal(b1-4)GlcNAc(b1-2)Man(a1-3)]Man(b1-4)GlcNAc(b1-4)GlcNAc
# Procedure, shortened: as §1
# [4] = target: Gal(b1-4)GlcNAc(b1-3)Gal(b1-4)GlcNAc(b1-2)[Gal(b1-4)GlcNAc(b1-3)Gal(b1-4)GlcNAc(b1-6)]Man(a1-6)[Gal(b1-4)GlcNAc(b1-3)Gal(b1-4)GlcNAc(b1-2)Man(a1-3)]Man(b1-4)GlcNAc(b1-4)[Fuc(a1-6)]GlcNAc
# Procedure, shortened: as §1
# [5] = target: Gal(b1-4)GlcNAc(b1-3)Gal(b1-4)GlcNAc(b1-3)Gal(b1-4)GlcNAc
# Procedure, shortened: as §1
# [6] = target: Gal(b1-4)GlcNAc(b1-3)Gal(b1-4)GlcNAc(b1-3)Gal(b1-4)GlcNAc(b1-2)Man(a1-3)[Gal(b1-4)GlcNAc(b1-3)Gal(b1-4)GlcNAc(b1-3)Gal(b1-4)GlcNAc(b1-2)Man(a1-6)]Man(b1-4)GlcNAc(b1-4)GlcNAc
# Procedure, shortened: as §1
# [7] = target: Gal(b1-4)GlcNAc(b1-3)Gal(b1-4)GlcNAc(b1-3)Gal(b1-4)GlcNAc(b1-2)Man(a1-3)[Gal(b1-4)GlcNAc(b1-3)Gal(b1-4)GlcNAc(b1-3)Gal(b1-4)GlcNAc(b1-2)Man(a1-6)]Man(b1-4)GlcNAc(b1-4)[Fuc(a1-6)]GlcNAc
# Procedure, shortened: as §1
# [8] = target: Gal(b1-4)GlcNAc(b1-3)Gal(b1-4)GlcNAc(b1-3)Gal(b1-4)GlcNAc(b1-2)[Gal(b1-4)GlcNAc(b1-3)Gal(b1-4)GlcNAc(b1-3)Gal(b1-4)GlcNAc(b1-6)]Man(a1-6)[Gal(b1-4)GlcNAc(b1-3)Gal(b1-4)GlcNAc(b1-3)Gal(b1-4)GlcNAc(b1-2)Man(a1-3)]Man(b1-4)GlcNAc(b1-4)[Fuc(a1-6)]GlcNAc
# Procedure, shortened: as §1
# [9] = target: Gal(b1-4)GlcNAc(b1-3)Gal(b1-4)GlcNAc(b1-3)Gal(b1-4)GlcNAc(b1-3)Gal(b1-4)GlcNAc(b1-2)Man(a1-3)[Gal(b1-4)GlcNAc(b1-3)Gal(b1-4)GlcNAc(b1-3)Gal(b1-4)GlcNAc(b1-3)Gal(b1-4)GlcNAc(b1-2)Man(a1-6)]Man(b1-4)GlcNAc(b1-4)GlcNAc
# Procedure, shortened: as §1
# [10] = target: Gal(b1-4)GlcNAc(b1-3)Gal(b1-4)GlcNAc(b1-3)Gal(b1-4)GlcNAc(b1-3)Gal(b1-4)GlcNAc(b1-2)Man(a1-3)[Gal(b1-4)GlcNAc(b1-3)Gal(b1-4)GlcNAc(b1-3)Gal(b1-4)GlcNAc(b1-3)Gal(b1-4)GlcNAc(b1-2)Man(a1-6)]Man(b1-4)GlcNAc(b1-4)[Fuc(a1-6)]GlcNAc
# Procedure, shortened: as §1
# [11] = target: Gal(b1-4)GlcNAc(b1-3)Gal(b1-4)GlcNAc(b1-3)Gal(b1-4)GlcNAc(b1-3)Gal(b1-4)GlcNAc(b1-2)[Gal(b1-4)GlcNAc(b1-3)Gal(b1-4)GlcNAc(b1-3)Gal(b1-4)GlcNAc(b1-3)Gal(b1-4)GlcNAc(b1-6)]Man(a1-6)[Gal(b1-4)GlcNAc(b1-3)Gal(b1-4)GlcNAc(b1-3)Gal(b1-4)GlcNAc(b1-3)Gal(b1-4)GlcNAc(b1-2)Man(a1-3)]Man(b1-4)GlcNAc(b1-4)[Fuc(a1-6)]GlcNAc
# Procedure, shortened: as §1
# [12] = target: Gal(b1-4)GlcNAc(b1-3)Gal(b1-4)GlcNAc(b1-3)Gal(b1-4)GlcNAc(b1-3)Gal(b1-4)GlcNAc(b1-3)Gal(b1-4)GlcNAc(b1-2)Man(a1-3)[Gal(b1-4)GlcNAc(b1-3)Gal(b1-4)GlcNAc(b1-3)Gal(b1-4)GlcNAc(b1-3)Gal(b1-4)GlcNAc(b1-3)Gal(b1-4)GlcNAc(b1-2)Man(a1-6)]Man(b1-4)GlcNAc(b1-4)GlcNAc
# Procedure, shortened: as §1
# [13] = target: Gal(b1-4)GlcNAc(b1-3)Gal(b1-4)GlcNAc(b1-3)Gal(b1-4)GlcNAc(b1-3)Gal(b1-4)GlcNAc(b1-3)Gal(b1-4)GlcNAc(b1-2)Man(a1-3)[Gal(b1-4)GlcNAc(b1-3)Gal(b1-4)GlcNAc(b1-3)Gal(b1-4)GlcNAc(b1-3)Gal(b1-4)GlcNAc(b1-3)Gal(b1-4)GlcNAc(b1-2)Man(a1-6)]Man(b1-4)GlcNAc(b1-4)[Fuc(a1-6)]GlcNAc
# Procedure, shortened: as §1
# [14] = target: Gal(b1-4)GlcNAc(b1-3)Gal(b1-4)GlcNAc(b1-3)Gal(b1-4)GlcNAc(b1-3)Gal(b1-4)GlcNAc(b1-3)Gal(b1-4)GlcNAc(b1-2)[Gal(b1-4)GlcNAc(b1-3)Gal(b1-4)GlcNAc(b1-3)Gal(b1-4)GlcNAc(b1-3)Gal(b1-4)GlcNAc(b1-3)Gal(b1-4)GlcNAc(b1-6)]Man(a1-6)[Gal(b1-4)GlcNAc(b1-3)Gal(b1-4)GlcNAc(b1-3)Gal(b1-4)GlcNAc(b1-3)Gal(b1-4)GlcNAc(b1-3)Gal(b1-4)GlcNAc(b1-2)Man(a1-3)]Man(b1-4)GlcNAc(b1-4)[Fuc(a1-6)]GlcNAc
# Procedure, shortened: as §1
# [15] = target: Gal(b1-4)GlcNAc(b1-3)Gal(b1-4)GlcNAc(b1-3)Gal(b1-4)GlcNAc(b1-3)Gal(b1-4)GlcNAc(b1-3)Gal(b1-4)GlcNAc(b1-3)Gal(b1-4)GlcNAc(b1-2)Man(a1-3)[Gal(b1-4)GlcNAc(b1-3)Gal(b1-4)GlcNAc(b1-3)Gal(b1-4)GlcNAc(b1-3)Gal(b1-4)GlcNAc(b1-3)Gal(b1-4)GlcNAc(b1-3)Gal(b1-4)GlcNAc(b1-2)Man(a1-6)]Man(b1-4)GlcNAc(b1-4)GlcNAc
# Procedure, shortened: as §1
# [16] = target: Gal(b1-4)GlcNAc(b1-3)Gal(b1-4)GlcNAc(b1-3)GalNAc
# Procedure, shortened: as §1
# [17] = target: Gal(b1-4)GlcNAc(b1-3)Gal(b1-4)GlcNAc(b1-3)[Gal(b1-4)GlcNAc(b1-3)Gal(b1-4)GlcNAc(b1-6)]GalNAc
# Procedure, shortened: as §1
# [18] = target: Gal(b1-4)GlcNAc(b1-3)Gal(b1-4)GlcNAc(b1-6)[Gal(b1-3)]GalNAc
# Procedure, shortened: as §1
# [19] = target: Gal(b1-4)GlcNAc(b1-3)Gal(b1-4)[Fuc(a1-3)]GlcNAc(b1-3)Gal(b1-4)[Fuc(a1-3)]GlcNAc
# Procedure, shortened: as §1
# [20] = target: Gal(b1-4)GlcNAc(b1-3)GalNAc
# Procedure, shortened: as §1
# [21] = target: Gal(b1-4)GlcNAc(b1-3)[Fuc(a1-3)GlcNAc(b1-6)]Gal(b1-4)Glc
# Procedure, shortened: as §1
# [22] = target: Gal(b1-4)GlcNAc(b1-3)[Gal(b1-4)GlcNAc(b1-6)]Gal(b1-4)GlcNAc
# Procedure, shortened: as §1
# [23] = target: Gal(b1-4)GlcNAc(b1-3)[Gal(b1-4)GlcNAc(b1-6)]GalNAc
# Procedure, shortened: as §1
binder,measurement,setting,value
EEA (Euonymus europaeus) (protein) MASTIIATGPTYRVYCRAAPNYNMIVGKGVAFLAPIDETNELQYWYKDDTYSYIKDEAGLPAFSLVNKATGLTLKHSNHHPVPVKLVTYNPNVVDESVLWSQADDRGDGYSAIRSLTNPASHLEAAPLNDWSYNGAIIMGGVWIDAYNQQWKIEPHTG,glycan array binding signal (z-score),[1],0.279
same,glycan array binding signal (z-score),[2],0.008
same,glycan array binding signal (z-score),[3],-0.101
same,glycan array binding signal (z-score),[4],-0.09
same,glycan array binding signal (z-score),[5],-0.241
same,glycan array binding signal (z-score),[6],0.918
same,glycan array binding signal (z-score),[7],-0.144
same,glycan array binding signal (z-score),[8],-0.029
same,glycan array binding signal (z-score),[9],-0.112
same,glycan array binding signal (z-score),[10],0.066
same,glycan array binding signal (z-score),[11],-0.077
same,glycan array binding signal (z-score),[12],-0.222
same,glycan array binding signal (z-score),[13],-0.141
same,glycan array binding signal (z-score),[14],0.147
same,glycan array binding signal (z-score),[15],-0.159
same,glycan array binding signal (z-score),[16],0.371
same,glycan array binding signal (z-score),[17],0.307
same,glycan array binding signal (z-score),[18],0.556
same,glycan array binding signal (z-score),[19],-0.222
same,glycan array binding signal (z-score),[20],-0.146
same,glycan array binding signal (z-score),[21],-0.11
same,glycan array binding signal (z-score),[22],-0.261
same,glycan array binding signal (z-score),[23],-0.249
